# Test results as given in the supplement of paper PMC3334620.
# Whole data set: some 33,000 sequences, median “E-score (-0.5 to 0.5)” near -0.016, cut for the highest 2% near 0.32. This is one part of the list.
# Biological target: T1, Stp1 (UniProt B3LFK1)
# T1 sequence: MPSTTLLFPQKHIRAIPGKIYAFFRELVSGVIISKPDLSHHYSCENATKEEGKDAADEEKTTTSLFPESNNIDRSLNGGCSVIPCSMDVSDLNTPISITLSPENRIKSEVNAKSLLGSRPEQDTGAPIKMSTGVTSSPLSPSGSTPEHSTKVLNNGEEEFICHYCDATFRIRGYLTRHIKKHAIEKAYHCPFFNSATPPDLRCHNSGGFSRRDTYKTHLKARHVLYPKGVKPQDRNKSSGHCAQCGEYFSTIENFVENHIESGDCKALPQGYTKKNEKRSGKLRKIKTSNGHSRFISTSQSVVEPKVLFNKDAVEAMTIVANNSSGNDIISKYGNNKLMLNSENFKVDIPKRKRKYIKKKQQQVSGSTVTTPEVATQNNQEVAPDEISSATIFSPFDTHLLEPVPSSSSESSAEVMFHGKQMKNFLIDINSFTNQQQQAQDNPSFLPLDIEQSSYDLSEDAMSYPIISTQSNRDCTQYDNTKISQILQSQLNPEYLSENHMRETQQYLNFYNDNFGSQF
# Experiment: PBM E-score (8-mer binding enrichment) (E-score (-0.5 to 0.5)); higher = stronger / more preferred TF binding; most listed sequences are background and not binding sites
# Details: protein concentration: 200 nM; construct: GST-full length
# Procedure, shortened: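 Yeast transcription factors carrying a GST tag, as full-length proteins or DNA-binding domains, were produced by PURExpress in vitro transcription/translation. About 100-200 nM protein was applied to universal all-10-mer Agilent arrays, double-stranded by primer extension on fresh or once-stripped slides. Bound protein was detected with fluorescent anti-GST, and scans were normalised with masliner. The Universal PBM Analysis Suite gave each ungapped eight-base word, pooled with its reverse complement, an E-score, a modified Wilcoxon-Mann-Whitney statistic.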
row,Sequence,PBM E-score
1,GCGTTAAC,0.229
2,CCCAGTAA,-0.0921
3,ACCTGTAA,0.00569
4,TCGAAGAA,-0.209
5,ACAGAAAT,0.139
6,ACATTGCC,0.0247
7,CGGGAGAG,-0.283
8,TCGTTTCA,0.102
9,CGAGTCGA,-0.00477
10,GCCTAGAC,-0.0643
11,CAGTATAA,0.115
12,AAACAGTC,-0.0975
13,AGCGAATC,-0.11
14,GATACTCC,-0.0868
15,AAAGTATG,0.00188
16,CAAAAAAG,0.188
17,ACGTGGTA,-0.0691
18,AATAATAG,-0.025
19,CTCGCAAC,-0.00839
20,GCCTACGC,0.134
21,CATCGCGC,0.0387
22,GATACCAA,0.156

row,Sequence,PBM E-score
1,CTTGACGA,-0.206
2,ACGTGGTC,-0.204
3,AGTTAATG,-0.00872
4,TCTGCTAA,0.0326
5,ATTAATCC,-0.019
6,CCCACGCA,-0.0405
7,ATGTAGGG,-0.163
8,ACACTTAA,0.105
9,AACCCCGT,-0.0797
10,ACTGGATA,0.182
11,CTTGCTAC,-0.0318
12,CCGACGTC,-0.186
13,TAGAGATA,0.2
14,ACTCCTCT,-0.278
15,ACTGATAA,0.106
16,CTATTCTC,-0.0296
17,CATACTAA,0.125
18,CTGGGCAC,-0.077
19,AAGAACAG,-0.0163
20,AGTTGTAC,0.0445
21,CGAGAGTC,-0.325
22,GTGCCGAA,0.322

row,Sequence,PBM E-score
1,AGGCAGGA,-0.137
2,CGCAGCAG,0.0762
3,AAGGAAAT,0.132
4,CGGCTTAC,0.104
5,ATCTGTCC,-0.14
6,CCTAGCCA,-0.0258
7,ATATGGGA,-0.221
8,AAGAGAAC,-0.00573
9,CTCACGAA,0.195
10,AGGAGGGG,-0.262
11,GCACATTA,0.22
12,AACTCGCA,0.0633
13,AAATTGAA,0.0576
14,GACAGCAC,0.0362
15,AGCGGGTC,-0.315
16,GACAGAAA,0.162
17,CAAAGAAG,-0.00872
18,CCATGGAG,-0.169
19,GCATGATA,0.0383
20,CCAGTCAG,-0.0588
21,CGAACAAG,0.0896
22,ATTAGAGA,0.0198

row,Sequence,PBM E-score
1,ACGACAAT,0.0963
2,AAGGTGGT,-0.15
3,ACCACTAA,0.0268
4,CGCAAGGA,0.00071
5,GGGCTATA,-0.293
6,ACACCCGT,-0.102
7,GTCCGAAA,0.156
8,AGTGTGTC,-0.0201
9,ATATTCCG,0.115
10,AAGTTAGC,0.122
11,GGTTTGAA,0.0901
12,CATAGTGC,0.106
13,CGCGGAGC,0.0796
14,CCCGTTGC,-0.0144
15,GCTGCGAC,-0.089
16,GCAAGTTA,0.0849
17,GCGGCACC,0.477
18,CTGACCCA,-0.253
19,CGCTCTTA,0.191
20,ATACGACG,0.0547
21,CAACGTAG,-0.0975
22,CCGTTAGA,0.191

row,Sequence,PBM E-score
1,GCAGACGA,0.0875
2,TGTGCACA,-0.219
3,ACCTCGCT,-0.105
4,CTACGGGA,-0.145
5,ATACCCGC,0.212
6,AGTCGAAG,-0.115
7,AATAACAG,0.2
8,CAACAGGA,-0.146
9,CCTATTTA,0.0522
10,ACCGCACT,-0.134
11,AGGAACCC,-0.299
12,AAGACAGA,0.132
13,AAACATTT,0.0291
14,GGTGCACA,-0.126
15,ATCGAAAG,0.148
16,TATATAGA,0.193
17,AGGTGCGG,0.189
18,GTTCGAAC,0.246
19,ATGCTCTC,-0.196
20,ACGTGGCG,0.272
21,CTTAAGGA,-0.0327
